# In PubChem BioAssay AID686978 (National Center for Advancing Translational Sciences (NCATS), 2013):
# The campaign covered roughly 420,000 compounds. About 64,000 (15%) were called active. The shares of active, inactive and inconclusive entries below differ from those in the screen. Calls come from the whole dose curve; as a rule, active = well fitted inhibition curve with a large enough effect; inconclusive = small, poorly fitted or top-dose-only effect; inactive = flat fitted curve, though single readings scatter. No potency is given beside an inconclusive call; the fits are too rough.
# Experiment: qHTS for Inhibitors of human tyrosyl-DNA phosphodiesterase 1 (TDP1): qHTS in cells in absence of CPT; note: nearly all actives have a fitted effect of over 55% in size
# Settings: DT40 Tdp1-/- hTDP1 cells, no CPT, ATP luminescence, 48 h; activity change, negative = growth inhibition: at 46.2 µM (top of the series) unless noted
# Summary of the method: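 Growth of hTDP1-complemented DT40 Tdp1-knockout cells is measured by ATP luminescence after at least 48 hr compound exposure at 37 °C, with DMSO substituting for the 20 nM CPT used in the parallel screen.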
# % is set by controls: 0 for no effect and ±100 for the full control effect; potency is the fitted concentration of half-maximal effect; tags give direction and shape of the fitted curve.
SMILES,"activity change, negative = growth inhibition",Potency
CC1CCCN(CC(=O)Nc2ccc(S(=O)(=O)N3CCCCC3)cc2)C1 (configuration not stated),inactive: -24.9%,–
O=C1Nc2ccc(Cl)cc2C12Nc1ccccc1-c1nnc(SCc3ccccc3F)nc1O2 (configuration not stated),–,"inconclusive [inhibitor, single point]"
COc1ccc(C)cc1NC(=O)N1CCN(c2cc(-c3noc(C)n3)ccc2C)CC1,–,active: 23.1 µM
CC(Sc1nc(-c2ccccc2)cc(C(F)(F)F)n1)C(=O)N1CCCCC1 (configuration not stated),–,"inconclusive [inhibitor, single point]"
COc1ccc(C2Nc3ccccc3C(=O)N2NS(=O)(=O)c2ccccc2)cc1 (configuration not stated),inactive: -12.2%,–
CCCCCOC(=O)Nc1ccc(S(=O)(=O)Nc2cccc([N+](=O)[O-])c2)cc1,–,"inconclusive [inhibitor, partial curve]"
C=CCC(NCc1ccccc1)c1ccc(C)o1 (configuration not stated),–,"inconclusive [inhibitor, single point]"
COc1ccc(OC)c(/C=C/c2cc3ccccc3cn2)c1,–,active: 5.01 µM
CCCN1CCC(N2CCN(c3cccc(C(F)(F)F)c3)CC2)CC1,–,active: 20.6 µM
O=C(/C=C/c1nc2ccccc2s1)N1CCCCCC1,–,"inconclusive [inhibitor, partial curve, poor fit]"
CCC1CCCCN1CCCNC(=O)c1ccc2c(c1)N(Cc1ccc(Cl)cc1)C(=O)c1ccccc1S2(=O)=O (configuration not stated),–,active: 23.1 µM
COC(=O)c1cccc(Oc2cccc(C(F)(F)F)c2)n1,inactive: -3.21%,–
c1ccc(CSc2nnc3c(n2)OC(c2ccco2)Nc2ccccc2-3)cc1 (configuration not stated),–,"inconclusive [inhibitor, single point]"
CC(=O)Nc1ccc2c(c1)[nH]c(=O)c1ccccc12,–,"inconclusive [inhibitor, single point]"
O=C(O)CSc1nnc(-c2cc3ccccc3o2)n1-c1ccccc1,inactive: 6.35%,–
CCOC(=O)CC1(C)NC(C(=O)O)C(C)(C)S1 (configuration not stated),inactive: 3.82%,–
CC(=O)Nc1ccccc1C(=O)N1CC2(C)CC1CC(C)(C)C2 (configuration not stated),inactive: -1.01%,–
CCN(CC(=O)Nc1ccc(NC(C)=O)cc1)C(=O)c1cccc(S(=O)(=O)N2CCc3ccccc3C2)c1,inactive: -20.4%,–
O=C(Cn1cc(C(=O)C2CC2)c2ccccc21)Nc1ccc(Br)cc1,inactive: -12%,–
CC1=C(C(=O)N2CCOCC2)CC(CC(=O)NCC2CCCCC2)C(=O)N1CCC1=CCCCC1 (configuration not stated),–,"inconclusive [inhibitor, single point]"
COc1cc(/C=C2\SC(=S)N(NC(=O)c3ccc(O)c(OC)c3)C2=O)ccc1O,inactive: -6.63%,–
CC(=O)N1CN(C2CC(C)(C)NC(C)(C)C2)Cc2c1sc1c2CCCC1,–,"inconclusive [inhibitor, single point]"
Cc1cc(C(=O)NNCc2ccccc2)no1,–,inactive
COc1ccc(-c2cc(N)n(S(=O)(=O)c3c(F)c(F)c(F)c(F)c3F)n2)cc1OC,–,active: 0.82 µM
CC1CC(O)C(C)CN1 (configuration not stated),inactive: -5.36%,–
CC(C)CN(C(=O)COC(=O)c1nc(Cl)ccc1Cl)c1c(N)n(Cc2ccccc2)c(=O)[nH]c1=O,inactive: -8.2%,–

SMILES,"activity change, negative = growth inhibition",Potency
O=C(CSc1nc(C2CC2)nc2c1cnn2-c1ccccc1)Nc1c[nH]c(=O)[nH]c1=O,–,"inconclusive [inhibitor, partial curve, poor fit]"
Cc1ccc(NC(=O)c2cc(S(=O)(=O)N3CCOCC3)c(Br)s2)cc1,–,"inconclusive [inhibitor, single point]"
CCC(Cc1ccccc1)NS(=O)(=O)c1c(C)nc2sccn2c1=O (configuration not stated),inactive: 3.14%,–
CC(=O)Nc1ccc(C(C#N)c2ccccc2)cc1 (configuration not stated),inactive: -11.7%,–
COc1ccc(C(=O)CSc2nccn2C)c(OC)c1,inactive: 8.69%,–
CCc1nc2ccc(C(=O)NC3CCN(Cc4ccccc4)CC3)cn2c1N(C)Cc1ccc(N(C)C)cc1,–,"inconclusive [inhibitor, single point]"
COc1cccc2cc(C(=O)OC(C)C(=O)c3ccc(C)cc3)c(=O)oc12 (configuration not stated),inactive: 25%,–
COc1ccc(S(=O)(=O)Nc2ccc(OCC(=O)O)cc2)c2ccccc12,inactive: -0.287%,–
CC(C)Nc1ncnc2c1nnn2Cc1ccccc1,inactive: -22.2%,–
Cc1ccc(C)c(Cn2c(=O)n(CCCCCC(=O)NCc3ccc4c(c3)OCO4)c(=O)c3sccc32)c1,–,"inconclusive [inhibitor, partial curve]"
O=C(O)C1CSC(c2coc3ccccc3c2=O)N1 (configuration not stated),–,"inconclusive [inhibitor, single point]"
CN1CCN(C(=O)c2ccc(CS(=O)Cc3ccc(Cl)cc3)o2)CC1 (configuration not stated),inactive: 7.08%,–
COc1ccccc1Nc1nc(N)nc(CSC(=S)N2CCCCC2)n1,–,active: 13 µM
CCCn1nc(NC(=O)c2ccco2)c2cc3cc(C)ccc3nc21,–,"inconclusive [inhibitor, single point]"
CSCc1nnc(NC(=O)c2ccc(S(=O)(=O)N3CCCCC3C)cc2)o1 (configuration not stated),–,active: 20.6 µM
CCOC(=O)CCCNC(=O)CN1C(=O)NC(c2ccccc2)(c2ccccc2)C1=O,inactive: -9.43%,–
Nc1ccc2oc(CCc3ccccc3)nc2c1,–,"inconclusive [inhibitor, single point]"
O=C(OC(C(=O)Nc1ccc(Cl)cc1C(F)(F)F)c1ccccc1)c1c(Cl)cccc1Cl (configuration not stated),–,active: 13 µM
COc1ccccc1-c1cc(NCc2cccnc2)ncn1,–,"inconclusive [inhibitor, single point]"
O=C(c1ccc(-c2ccc(Cl)cc2Cl)o1)N1CCOCC1,–,"inconclusive [inhibitor, single point]"
CC(=O)c1ccc(NC(=O)CCCc2nc(-c3cccc(C)c3)no2)cc1,–,active: 20.6 µM
CCOc1ccc(NC(=O)CCC(=O)Oc2ccc(C)cc2)cc1,inactive: 13.4%,–
COc1cc(C)c(S(=O)(=O)NOCc2ccccc2)c(C)c1C,–,"inconclusive [inhibitor, single point]"
CCCN(CC(=O)Nc1ccc(Cl)cc1Cl)C(=O)/C=C/c1cc(OC)ccc1OC,–,active: 29.1 µM
COc1cc2c(cc1OC)CN(CC(=O)Nc1ccccc1C#N)CC2,–,"inconclusive [inhibitor, single point]"
CCCNC(=O)c1cc(C2CCCCN2S(=O)(=O)c2cn(C)cn2)on1 (configuration not stated),inactive: -8.48%,–

SMILES,"activity change, negative = growth inhibition",Potency
CCN(CC)S(=O)(=O)c1ccc(N2CCOCC2)c(NC(=O)C(C)Oc2ccc(F)cc2)c1 (configuration not stated),–,"inconclusive [inhibitor, single point]"
CC(C)Oc1cc(F)ccc1-c1cc(C(=O)NCc2ccccc2)[nH]n1,inactive: -31.9%,–
CCc1ccc(C(=O)Nc2cc(C)on2)o1,inactive: -19%,–
Cc1cc2c(cc1C)CSC(c1ccc3ccccc3c1O)SC2,–,"inconclusive [inhibitor, partial curve, poor fit]"
COc1ccc(S(=O)(=O)N2CCC(C(=O)NCC3CCCO3)CC2)cc1 (configuration not stated),inactive: -2.47%,–
O=[N+]([O-])c1ccc(CN2[C@H](COCc3ccccc3)[C@@H](N3CCCC3)CS2(=O)=O)cc1,–,"inconclusive [inhibitor, single point]"
CCOc1ccc(S(=O)(=O)N2CC(=O)Nc3ccccc32)cc1,–,"inconclusive [inhibitor, single point]"
Cc1no[n+]([O-])c1COc1ccc(/C=C2\NC(=S)NC2=O)cc1,inactive: -24.6%,–
Cc1cccc(CSC2=NCCN2S(=O)(=O)c2ccc(F)cc2)c1,–,"inconclusive [inhibitor, single point]"
CC1C(C#N)=C(SCC(N)=O)NC2=C1C(=O)CC(C)(C)C2 (configuration not stated),–,"inconclusive [inhibitor, partial curve]"
Cc1nc(-c2cccc(S(=O)(=O)N3CCC(C)CC3)c2)cs1,–,"inconclusive [inhibitor, single point]"
Cc1nn(Cc2ccccc2)c(C)c1C(=O)NCC(c1cccs1)N1CCOCC1 (configuration not stated),–,"inconclusive [inhibitor, single point]"
O=S(=O)(Nc1cccc(-c2ccc(N3CCCC3)nn2)c1)c1ccc(F)cc1F,inconclusive: -35.1% [inhibitor],–
CN(C)c1ccc(CC(=O)c2nc3ccccc3s2)cc1,–,"inconclusive [inhibitor, single point]"
COc1ccc(C(=O)Nc2cc(OC)cc(OC)c2)cc1,–,"inconclusive [inhibitor, single point]"
CCC(=O)NC(=S)NNC(=O)c1ccc(O)cc1,–,"inconclusive [inhibitor, single point]"
COc1ccccc1N1CCN(Cc2ccc(Br)o2)CC1,inactive: -27.4%,–
Cc1ccc(S(=O)(=O)c2nc(-c3cccc(C)c3)oc2N2CCCCC2)cc1,–,active: 23.1 µM
COc1ccc(C(=O)c2oc3ccccc3c2NC(C)=O)cc1,–,"inconclusive [inhibitor, partial curve]"
COc1ccccc1/C=N/NC(=O)c1cccc(NC(=O)c2ccccc2C)c1,inactive: -6.65%,–
COc1ccc(N2CCN(C(=O)CN(C)S(=O)(=O)c3cccs3)CC2)cc1,–,"inconclusive [inhibitor, single point]"
O=C(NCc1ccccc1)c1cc(C2CCCN(C(=O)C3CCCCC3)C2)on1 (configuration not stated),–,"inconclusive [inhibitor, single point]"
O=C(NCCNC(=O)Oc1cccc2ccccc12)Oc1cccc2ccccc12,–,"inconclusive [inhibitor, single point]"
COc1ccc(NC(=O)CSc2c3c(nc4ccccc24)CCC3)c(OC)c1,–,active: 20.6 µM
O=C(Cc1ccc(Br)cc1)NCCN1CCOCC1,inactive: -2.63%,–
